# This is one part of the list.
# B1: Cohesin-marm-DC-ASGPR (protein)
# chain: LDITSHHHHHHDDLDAVRIKVDTVNAKPGDTVRIPVRFSGIPSKGIANCDFVYSYDPNVLEIIEIEPGDIIVDPNPDKSFDTAVYPDRKIIVFLFAEDSGTGAYAITKDGVFATIVAKVKEGAPNGLSVIKFVEVGGFANNDLVEQKTQFFDGGVNVGDTTEPATPTTPVTTPTTTDDLDAASSKFQRDLVTLRTDFSNFTSNTLAEIQALTSQGSSLQETIASLKAEVEGHKQELQAGASELQEHNKQKAHLGRCPHTCVCPSSFVCVPVHSEILLRVQQLVQDLNKLSCQVAILKNNATTERTCCPINWVEHQGSCYWFSRSGKTWPEAERYCQLENTHLVVINSREEQNFVQAHLGSAYTWMGLSDPEGVWKWVDGTDYSSGFQNWKPGQPDDWQGHGLGGGEDCAHFHPDGRWNDDVCQRSYHWVCEAGLTQASQDSHAS
# Experiments:
# Assay in all cases: glycan array binding signal (z-score within array); higher = stronger binding
# Settings in all cases: glycan notation: IUPAC condensed, linker removed
# Fuc(a1-2)Gal = target: Fuc(a1-2)Gal
# In short: (§1)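 Columns mapping to the same glycan were averaged after glycan names were converted to IUPAC-condensed notation. The data come from 3228 arrays in the Consortium for Functional Glycomics database, limited to those with an available protein sequence. Binding is reported as a within-array Z-score averaged across arrays of one protein sequence and across linkers.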
# Fuc(a1-2)Gal(b1-3)GalNAc = target: Fuc(a1-2)Gal(b1-3)GalNAc
# In short: as §1
# [1] = target: Fuc(a1-2)Gal(b1-3)GalNAc(a1-3)[Fuc(a1-2)]Gal(b1-4)Glc
# In short: as §1
# [2] = target: Fuc(a1-2)Gal(b1-3)GalNAc(a1-3)[Fuc(a1-2)]Gal(b1-4)GlcNAc
# In short: as §1
# [3] = target: Fuc(a1-2)Gal(b1-3)GalNAc(b1-3)Gal
# In short: as §1
# [4] = target: Fuc(a1-2)Gal(b1-3)GalNAc(b1-3)Gal(a1-4)Gal(b1-4)Glc
# In short: as §1
# [5] = target: Fuc(a1-2)Gal(b1-3)GalNAc(b1-4)[Neu5Ac(a2-3)]Gal(b1-4)Glc
# In short: as §1
# Fuc(a1-2)Gal(b1-3)GlcNAc = target: Fuc(a1-2)Gal(b1-3)GlcNAc
# In short: as §1
# [6] = target: Fuc(a1-2)Gal(b1-3)GlcNAc(b1-2)Man(a1-3)[Fuc(a1-2)Gal(b1-3)GlcNAc(b1-2)Man(a1-6)]Man(b1-4)GlcNAc(b1-4)GlcNAc
# In short: as §1
# [7] = target: Fuc(a1-2)Gal(b1-3)GlcNAc(b1-2)Man(a1-3)[Fuc(a1-2)Gal(b1-3)GlcNAc(b1-2)Man(a1-6)]Man(b1-4)GlcNAc(b1-4)[Fuc(a1-6)]GlcNAc
# In short: as §1
# [8] = target: Fuc(a1-2)Gal(b1-3)GlcNAc(b1-3)Gal(b1-4)Glc
# In short: as §1
# [9] = target: Fuc(a1-2)Gal(b1-3)GlcNAc(b1-3)GalNAc
# In short: as §1
# [10] = target: Fuc(a1-2)Gal(b1-3)GlcNAc(b1-3)[Fuc(a1-2)Gal(b1-3)GlcNAc(b1-6)]GalNAc
# In short: as §1
# [11] = target: Fuc(a1-2)Gal(b1-3)GlcNAc(b1-3)[Gal(b1-4)GlcNAc(b1-6)]Gal(b1-4)Glc
# In short: as §1
# [12] = target: Fuc(a1-2)Gal(b1-3)GlcNAc(b1-3)[Neu5Ac(a2-6)Gal(b1-4)GlcNAc(b1-6)]Gal(b1-4)Glc
# In short: as §1
# [13] = target: Fuc(a1-2)Gal(b1-3)GlcNAc6S
# In short: as §1
# [14] = target: Fuc(a1-2)Gal(b1-3)[Fuc(a1-4)]GlcNAc
# In short: as §1
# [15] = target: Fuc(a1-2)Gal(b1-3)[Fuc(a1-4)]GlcNAc(b1-2)Man(a1-3)[Fuc(a1-2)Gal(b1-3)[Fuc(a1-4)]GlcNAc(b1-2)Man(a1-3)]Man(b1-4)GlcNAc(b1-4)GlcNAc
# In short: as §1
# [16] = target: Fuc(a1-2)Gal(b1-3)[Fuc(a1-4)]GlcNAc(b1-2)Man(a1-3)[Fuc(a1-2)Gal(b1-3)[Fuc(a1-4)]GlcNAc(b1-2)Man(a1-6)]Man(b1-4)GlcNAc(b1-4)[Fuc(a1-6)]GlcNAc(b1-4)[Fuc(a1-6)]GlcNAc
# In short: as §1
# [17] = target: Fuc(a1-2)Gal(b1-3)[Fuc(a1-4)]GlcNAc(b1-3)[Fuc(a1-3)[Gal(b1-4)]GlcNAc(b1-6)]Gal(b1-4)Glc
# In short: as §1
# [18] = target: Fuc(a1-2)Gal(b1-3)[Fuc(a1-4)]GlcNAc(b1-3)[Gal(b1-4)GlcNAc(b1-6)]Gal(b1-4)Glc
# In short: as §1
# Fuc(a1-2)Gal(b1-4)Glc = target: Fuc(a1-2)Gal(b1-4)Glc
# In short: as §1
# Fuc(a1-2)Gal(b1-4)Glc6S = target: Fuc(a1-2)Gal(b1-4)Glc6S
# In short: as §1
# Fuc(a1-2)Gal(b1-4)GlcNAc = target: Fuc(a1-2)Gal(b1-4)GlcNAc
# In short: as §1
# [19] = target: Fuc(a1-2)Gal(b1-4)GlcNAc(b1-2)Man
# In short: as §1
# [20] = target: Fuc(a1-2)Gal(b1-4)GlcNAc(b1-2)Man(a1-3)[Fuc(a1-2)Gal(b1-4)GlcNAc(b1-2)Man(a1-6)]Man(b1-4)GlcNAc(b1-4)GlcNAc
# In short: as §1
# [21] = target: Fuc(a1-2)Gal(b1-4)GlcNAc(b1-2)Man(a1-3)[Fuc(a1-2)Gal(b1-4)GlcNAc(b1-2)Man(a1-6)]Man(b1-4)GlcNAc(b1-4)[Fuc(a1-6)]GlcNAc
# In short: as §1
# [22] = target: Fuc(a1-2)Gal(b1-4)GlcNAc(b1-2)[Fuc(a1-2)Gal(b1-4)GlcNAc(b1-4)]Man(a1-3)[Fuc(a1-2)Gal(b1-4)GlcNAc(b1-2)Man(a1-6)]Man(b1-4)GlcNAc(b1-4)GlcNAc
# In short: as §1
# [23] = target: Fuc(a1-2)Gal(b1-4)GlcNAc(b1-3)Gal(b1-4)GlcNAc
# In short: as §1
# [24] = target: Fuc(a1-2)Gal(b1-4)GlcNAc(b1-3)Gal(b1-4)GlcNAc(b1-2)Man(a1-3)[Fuc(a1-2)Gal(b1-4)GlcNAc(b1-3)Gal(b1-4)GlcNAc(b1-2)Man(a1-6)]Man(b1-4)GlcNAc(b1-4)GlcNAc
# In short: as §1
# [25] = target: Fuc(a1-2)Gal(b1-4)GlcNAc(b1-3)Gal(b1-4)GlcNAc(b1-3)Gal(b1-4)GlcNAc
# In short: as §1
# [26] = target: Fuc(a1-2)Gal(b1-4)GlcNAc(b1-3)GalNAc
# In short: as §1
# [27] = target: Fuc(a1-2)Gal(b1-4)GlcNAc(b1-3)[Fuc(a1-2)Gal(b1-4)GlcNAc(b1-6)]GalNAc
# In short: as §1
# [28] = target: Fuc(a1-2)Gal(b1-4)GlcNAc(b1-3)[Fuc(a1-3)[Gal(b1-4)]GlcNAc(b1-6)]Gal(b1-4)Glc
# In short: as §1
# [29] = target: Fuc(a1-2)Gal(b1-4)GlcNAc(b1-6)GalNAc
# In short: as §1
# [30] = target: Fuc(a1-2)Gal(b1-4)GlcNAc6S
# In short: as §1
# [31] = target: Fuc(a1-2)Gal(b1-4)[Fuc(a1-3)]GlcNAc
# In short: as §1
binder,measurement,setting,value
B1,glycan array binding signal (z-score),Fuc(a1-2)Gal,-0.26
same,glycan array binding signal (z-score),Fuc(a1-2)Gal(b1-3)GalNAc,-0.307
same,glycan array binding signal (z-score),[1],-0.307
same,glycan array binding signal (z-score),[2],-0.268
same,glycan array binding signal (z-score),[3],0.919
same,glycan array binding signal (z-score),[4],-0.282
same,glycan array binding signal (z-score),[5],-0.213
same,glycan array binding signal (z-score),Fuc(a1-2)Gal(b1-3)GlcNAc,-0.277
same,glycan array binding signal (z-score),[6],-0.215
same,glycan array binding signal (z-score),[7],-0.204
same,glycan array binding signal (z-score),[8],-0.3
same,glycan array binding signal (z-score),[9],-0.296
same,glycan array binding signal (z-score),[10],-0.305
same,glycan array binding signal (z-score),[11],-0.279
same,glycan array binding signal (z-score),[12],-0.279
same,glycan array binding signal (z-score),[13],-0.059
same,glycan array binding signal (z-score),[14],-0.259
same,glycan array binding signal (z-score),[15],-0.263
same,glycan array binding signal (z-score),[16],-0.286
same,glycan array binding signal (z-score),[17],-0.308
same,glycan array binding signal (z-score),[18],-0.301
same,glycan array binding signal (z-score),Fuc(a1-2)Gal(b1-4)Glc,-0.234
same,glycan array binding signal (z-score),Fuc(a1-2)Gal(b1-4)Glc6S,-0.294
same,glycan array binding signal (z-score),Fuc(a1-2)Gal(b1-4)GlcNAc,-0.265
same,glycan array binding signal (z-score),[19],-0.292
same,glycan array binding signal (z-score),[20],-0.208
same,glycan array binding signal (z-score),[21],-0.194
same,glycan array binding signal (z-score),[22],-0.267
same,glycan array binding signal (z-score),[23],-0.301
same,glycan array binding signal (z-score),[24],-0.25
same,glycan array binding signal (z-score),[25],-0.306
same,glycan array binding signal (z-score),[26],-0.301
same,glycan array binding signal (z-score),[27],-0.236
same,glycan array binding signal (z-score),[28],-0.313
same,glycan array binding signal (z-score),[29],4.84
same,glycan array binding signal (z-score),[30],-0.303
same,glycan array binding signal (z-score),[31],-0.289

# From the supplement of paper PMC8728848
